# The campaign covered roughly 210,000 compounds. About 730 (0.35%) were called active. This list was built around the results that the source calls inconclusive (neither active nor inactive); the mix of calls is not that of the screen. Calls come from the whole dose curve; as a rule, active = well fitted inhibition curve with a large enough effect; inconclusive = small, poorly fitted or top-dose-only effect; inactive = no such curve, though single readings can be large or run the other way. Potencies of inconclusive entries are doubtful fits and often do not repeat.
# Test: qHTS Assay for Identifying the Cell-Membrane Permeable IMPase Inhibitors: Potentiation with Lithium; note: nearly all actives have a fitted effect of over 50% in size;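 for activity, negative = IMPase inhibition: plate controls were basal vehicle for no effect and high inhibitor control for full effect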
# Conditions: CHO-M1 cells, IP1 TR-FRET (IP-One), carbachol + lithium; series mostly up to 59.4 µM; activity, negative = IMPase inhibition: at the top concentration
# Outline: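 Test compounds were applied to CHO-M1 cells previously cultured for 16–30 h at 2000 per well. A small lithium amount accompanied them; after 30 min at 37C, IP1 was quantified by TR-FRET.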
# Potency is the fitted concentration of half-maximal effect.
Compound,Potency,"activity, negative = IMPase inhibition"
O=C(NCc1ccco1)c1cc2ccc(O)cc2oc1=O,"inconclusive: 25.1 µM [inhibitor, partial curve]",–
CCCCn1c(=O)c2c(O)cc(=O)oc2c2ccccc21,"inconclusive: 4.47 µM [inhibitor, full curve]",–
COc1ccc(-c2nc3oc4cc(OC)ccc4c(=O)c3c(=O)n2Cc2ccco2)cc1,"inconclusive: 12.6 µM [inhibitor, single point]",–
COc1ccc(-c2nc3cnc(Oc4ccccc4)nc3n(C3CC3)c2=O)cc1,"inconclusive: 28.2 µM [inhibitor, partial curve]",–
Cc1sc2ncnc(Sc3ccccc3C(=O)O)c2c1C,active: 4.47 µM,–
COCCCNC(=O)Cn1nnc(-c2ccc(NC(=O)c3ccccc3OC)cc2)n1,"inconclusive: 12.6 µM [inhibitor, single point]",–
Cc1ccc(/C=C/C(=O)N2CCc3ccccc32)o1,–,inactive: 2.64%
O=C(CC1Nc2c3ccccc3nc(=S)n2C1=O)NC1CCCCC1 (stereo unspecified),"inconclusive: 10 µM [inhibitor, single point]",–
COc1ccc2c(c1)Cc1sc(NC(=O)c3ccccc3)nc1-2,–,inactive: 22.8% [at 38.3 µM]
O=C(O)[C@@H]1CCN(Cc2oc(CO)cc(=O)c2O)C1,–,inactive: -3.44%
Cc1cccc(NC(=O)CSc2nnc(-c3ccccc3C)o2)c1,–,inactive: 6.88%
Cc1ccc(/C(O)=C2\C(=O)C(=O)N(CC(C)O)C2c2cccc(F)c2)cc1 (stereo unspecified),"inconclusive: 8.91 µM [inhibitor, single point]",–
CCN(CC)c1ccc(C(=O)OCC(=O)N2CCN(c3ccccc3)CC2)cc1,"inconclusive: 12.6 µM [inhibitor, single point]",–
Cn1cc(Cl)c(-c2n[nH]c(=S)n2-c2ccccc2)n1,active: 11.2 µM,–
CCCNC(=O)Nc1ccsc1C(=O)OC,–,inactive: -0.553%
O=C(CSc1ccc(-c2ccco2)nn1)NCc1ccc2c(c1)OCO2,"inconclusive: 11.2 µM [inhibitor, single point]",–
COc1ccccc1NC(=O)c1ccc(-c2ccc(Br)cc2)o1,"inconclusive: 20 µM [inhibitor, single point]",–
O=C(CCn1c(=S)oc2ccccc21)Nc1ccc(F)cc1,"inconclusive: 5.01 µM [inhibitor, single point]",–
COc1ccc(-n2c(=O)cnc3cnc(N(C)C)nc32)cc1,"inconclusive: 28.2 µM [inhibitor, single point]",–
Cc1sc(NC(=S)NC(=O)CCc2ccccc2)c(C(N)=O)c1C,active: 11.2 µM,–
COc1cccc(-c2nnc3sc(-c4ccco4)nn23)c1,"inconclusive: 28.2 µM [inhibitor, single point]",–
Cc1cc(=O)nc2c3ccccc3n(C(C)C(=O)Nc3c(F)c(F)c(F)c(F)c3F)n12 (stereo unspecified),"inconclusive: 28.2 µM [inhibitor, single point]",–
CCOc1ccc(N2CSC3=C(C#N)C(c4ccco4)CC(=O)N3C2)cc1 (stereo unspecified),"inconclusive: 28.2 µM [inhibitor, single point]",–
Nc1ccc2nc(-c3ccc(Cl)cc3)[nH]c2c1,active: 10 µM,–

Compound,Potency,"activity, negative = IMPase inhibition"
Cc1sc2ncnc(SCC(=O)NC(=O)c3cccn3C)c2c1C,"inconclusive: 28.2 µM [inhibitor, single point]",–
CC(C)(C)c1ccc(CNC(=O)c2ccc3c(c2)NC(=O)CO3)cc1,"inconclusive: 5.01 µM [inhibitor, single point]",–
O=c1[nH]c(SCc2nc3c(cnn3-c3ccccc3)c(=O)[nH]2)nc2ccccc12,"inconclusive: 25.1 µM [inhibitor, single point]",–
COc1ccc(-n2cc(-c3ccccc3)nc2SC)cc1,–,inactive: 3.29%
COc1ccc(NC(=O)CSc2ccc3nnc(-c4cccnc4)n3n2)c(OC)c1,"inconclusive: 22.4 µM [inhibitor, single point]",–
COc1ccc(-c2c(C#N)c(SCC(N)=O)nc3c2CCCC3)cc1,"inconclusive: 28.2 µM [inhibitor, single point]",–
CC(=O)c1sc(NC(=O)c2ccccc2F)nc1C,–,inactive: -1.91% [at 38.3 µM]
Cc1c(Cl)c(S(N)(=O)=O)cc2c1=NC=NS=2(=O)O,–,inactive: -0.666%
N#Cc1c(-c2ccco2)nc(NCC2CCCO2)[nH]c1=O (stereo unspecified),"inconclusive: 10 µM [inhibitor, partial curve]",–
Cn1c(SCC(=O)N2CCc3ccccc32)nnc1-c1ccc(S(=O)(=O)N2CCCC2)cc1,"inconclusive: 28.2 µM [inhibitor, single point]",–
Cc1nc(-c2ccc(NS(=O)(=O)c3ccccc3)cc2)cs1,–,inactive: 5.47%
CCOC(=O)CSc1nc(CC)nc2ccccc12,"inconclusive: 14.1 µM [inhibitor, single point]",–
Cc1ccc(/C(O)=C2/C(=O)C(=O)N(CCN3CCOCC3)C2c2ccccn2)cc1 (stereo unspecified),–,inactive: 19.4% [at 38.3 µM]
COc1ccc(/C(O)=C2/C(=O)C(=O)N(CC3CCCO3)C2c2cccc(OC)c2)cc1 (stereo unspecified),"inconclusive: 8.91 µM [inhibitor, partial curve]",–
CC(C)(C)c1ccc(S(=O)(=O)NCC(=O)Nc2ccc(-c3nc4ccccc4s3)cc2)cc1,"inconclusive: 15.8 µM [inhibitor, single point]",–
CC(C)OC(=O)C(C)Nc1n[nH]c(=S)[nH]c1=O (stereo unspecified),"inconclusive: 14.1 µM [inhibitor, single point]",–
Cc1cc(N2C(=O)C(=O)/C(=C(/O)c3ccc(Cl)cc3)C2c2cccc(Br)c2)no1 (stereo unspecified),"inconclusive: 10 µM [inhibitor, single point]",–
O=C(COc1ccc2ccccc2c1)NNC(=O)Cc1ccccc1,"inconclusive: 20 µM [inhibitor, single point]",–
COc1ccc(C(=O)COC(=O)c2ccc(N(C)C)cc2)cc1,"inconclusive: 28.2 µM [inhibitor, single point]",–
Cc1ccc(C(=O)NC(=S)NCC(=O)c2ccccc2)cc1,"inconclusive: 28.2 µM [inhibitor, single point]",–
O=C(Nc1cccc(F)c1)c1sc(Cl)nc1-c1ccccc1,"inconclusive: 28.2 µM [inhibitor, single point]",–
Cc1nc(SCC(=O)NCc2ccco2)c2c3c(sc2n1)CCCC3,"inconclusive: 28.2 µM [inhibitor, single point]",–
COCCn1c(=O)c(-c2ccc(F)cc2)nc2cnc(Oc3cccc(Cl)c3)nc21,"inconclusive: 28.2 µM [inhibitor, single point]",–
COc1ccc2oc(=O)c(NC(=O)C3CCCCC3)cc2c1,"inconclusive: 20 µM [inhibitor, single point]",–

Compound,Potency,"activity, negative = IMPase inhibition"
CCCc1nc(SCC(=O)Nc2cc(C)on2)c2ccccc2n1,"inconclusive: 31.6 µM [inhibitor, single point]",–
COc1ccc(NC(=O)CSc2ccccc2)cc1S(=O)(=O)N1CCCCC1,–,inactive: 3.83%
N#CCCn1c(-c2nonc2NC(=O)c2ccccc2Cl)nc2ccccc21,"inconclusive: 28.2 µM [inhibitor, single point]",–
CCOC(=O)c1c(NC(=O)CN2C(=O)c3ccccc3C2=O)sc(Cc2ccc3c(c2)OCO3)c1C,"inconclusive: 28.2 µM [inhibitor, single point]",–
CCc1cc(=O)oc2c(CN3CCN(C)CC3)c(O)c(Cl)cc12,"inconclusive: 10 µM [inhibitor, partial curve]",–
O=C(NC(=S)NNS(=O)(=O)c1ccccc1)c1ccccc1[N+](=O)[O-],–,inactive: -2.58%
Cc1ccnc(N2CCC(C(=O)NNC(=O)COc3cccc4ccccc34)CC2)n1,"inconclusive: 28.2 µM [inhibitor, single point]",–
CCN1/C(=C2\OC(=S)N(C)C2=O)Sc2ccccc21,active: 11.2 µM,–
Cc1[nH]c2ccccc2c1/C=C/c1cc[n+](C)cc1,–,inactive: 42.3% [at 38.3 µM]
COc1cc(C(=O)Nc2ccc(S(=O)(=O)NC(C)(C)C)cc2)cc(OC)c1OC,"inconclusive: 10 µM [inhibitor, single point]",–
CN(C)/C=N/c1nc2nccc(-c3cccnc3)n2n1,"inconclusive: 12.6 µM [inhibitor, partial curve]",–
O=C(CSc1nnc2c3ccccc3c3ccccc3c2n1)Nc1ccccc1F,"inconclusive: 11.2 µM [inhibitor, partial curve]",–
O=C(c1cccc(F)c1)N(Cc1nc2ccccc2c(=O)[nH]1)C1CCCC1,–,inactive: 15.2%
CSc1nc(Oc2ccc3ccccc3c2)c2ccccc2n1,–,inactive: 48.8% [at 38.3 µM]
COc1ccc(-c2nnc3ccc(SCc4ccccc4)nn23)cc1,"inconclusive: 28.2 µM [inhibitor, single point]",–
COc1ccc(-c2cc(-c3ccc(OC)cc3)c(C#N)c(SC)n2)cc1,active: 11.2 µM,–
CCN(CC)C(=O)c1cc2c(=O)c3cc(Cl)ccc3oc2nc1C,"inconclusive: 28.2 µM [inhibitor, single point]",–
CSc1ncccc1C(=O)NCc1ccc(C)cc1,"inconclusive: 12.6 µM [inhibitor, single point]",–
Cc1ccc(-c2cc(-c3ccccc3)[nH]c(=S)c2C#N)cc1,"inconclusive: 10 µM [inhibitor, single point]",–
COc1ccccc1N1CCN(C(=O)CN(C2CCCCC2)S(C)(=O)=O)CC1,–,inactive: 1.58%
CN(C)S(=O)(=O)c1ccc(N2CCCC2)c(C(=O)NCc2cccc(C(F)(F)F)c2)c1,"inconclusive: 28.2 µM [inhibitor, single point]",–
O=C(Nc1ccc2oc(-c3cccc4ccccc34)nc2c1)c1ncn[nH]1,"inconclusive: 11.2 µM [inhibitor, single point]",–
COc1ccc(/C=N/NC(=O)c2c(C)nnn2-c2nonc2N)cc1OC,"inconclusive: 5.01 µM [inhibitor, single point]",–

# Source: PubChem BioAssay AID1457 (National Center for Advancing Translational Sciences (NCATS), 2008)
